# Hit rate of the full screen: of about 94,000 compounds, about 6,200 (6.6%) were called active. Inconclusive means that the source gave no clear call. Such entries were picked first, then a sample of the others. The call rests on the fitted dose curve; in most records, active means well fitted inhibition curve with a large enough effect; inconclusive means small, poorly fitted or top-dose-only effect; inactive means flat fitted curve, though single readings scatter. Where the call is inconclusive, the potency comes from a doubtful curve fit.
# Assay: Cytotoxic Profiling in HEK 293 Cell Line of Diverse Libraries Using Quantitative High-Throughput Screening; further: nearly all actives have a fitted effect of over 60% in size
# Conditions: HEK 293 viability, ATP luminescence (CellTiter-Glo), 48-72 h; series mostly up to 115 µM
# How it was run: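 qHTS cytotoxicity; HEK 293, 250 cells/well; compound pinned; 48 or 72 hr, 37 degree Celsius, 5% CO2, 95% humidity; CellTiter-Glo, 10 min RT; luminescence (ATP).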
# Potency means the concentration at half of the fitted maximal effect; tags describe the fitted curve by direction and shape.
row,Structure (SMILES),Potency
1,N#Cc1ccc(CN2CCn3c(nn(-c4ccc(C(F)(F)F)cc4)c3=O)C2)cc1,"inconclusive: 35.5 µM [inhibitor, partial curve, poor fit]"
2,O=C1NCc2ccccc2CC12CCN(Cc1cccc(C(F)(F)F)c1)C2 (stereo not given),active: 39.8 µM
3,CCN1CCCC12Cc1ccccc1CN(C(=O)c1ccccc1)C2 (stereo not given),"inconclusive: 79.4 µM [inhibitor, partial curve, poor fit]"
4,CC(=O)Nc1ccc(C2(C(=O)NCc3ccc(F)c(Cl)c3)CCC2)cc1,"inconclusive: 50.1 µM [inhibitor, partial curve, poor fit]"
5,COc1ccc(CN2CCCn3nc(C)c(-c4ccccc4C(C)C)c32)cc1O,active: 63.1 µM
6,CCNC(=O)c1n[nH]c2c1CN(C(=O)c1ccccc1OC(F)(F)F)CC2,"inconclusive: 89.1 µM [inhibitor, single point]"
7,O=C(NCc1ccccn1)C1CCCN(c2nc3ncccc3o2)C1 (stereo not given),inactive
8,Cc1ccc(NC(=O)N2CCC(OC3CCN(S(C)(=O)=O)CC3)CC2)cc1F,"inconclusive: 89.1 µM [inhibitor, single point]"
9,COc1cc(F)cc(-c2cccc(CCOc3cnc4c(ccn4CC(=O)O)c3)c2)c1,"inconclusive: 112 µM [inhibitor, partial curve, poor fit]"
10,CN1CC[C@H](N(Cc2ccccc2)Cc2ccccc2)C[C@H](O)C1,"inconclusive: 79.4 µM [inhibitor, single point]"
11,CCC(NC(=O)c1coc(COc2ccc(F)cc2)n1)c1ccncc1 (stereo not given),"inconclusive: 35.5 µM [inhibitor, partial curve]"
12,COc1cccc(-c2ccc3ncn(-c4ccc(F)cc4F)c(=O)c3n2)c1OC,"inconclusive: 100 µM [inhibitor, partial curve]"
13,COCCNC(=O)c1cc2c(=O)[nH]c(-c3ccccc3)cn2n1,"inconclusive: 89.1 µM [inhibitor, single point]"
14,CN1CC(=O)N(C2CCCNCC2)Cc2c(NCCO)ncnc21 (stereo not given),inactive
15,Cc1cc(C(=O)N2CCc3c(nc(C)nc3N(C)C)C2)c2cccc(C)c2n1,"inconclusive: 89.1 µM [inhibitor, partial curve, poor fit]"
16,COC(=O)N1CCn2c(nnc2-c2ccc(OC)cc2)C1,"inconclusive: 126 µM [inhibitor, single point]"
17,Cn1ncc2c(C(=O)NCc3cccnc3)cc(-c3ccc([S+](C)(=O)[O-])cc3)nc21,inactive
18,COc1cccc(-c2cn3c(n2)N(C(=O)c2cnccn2)CCC3)c1,"inconclusive: 79.4 µM [inhibitor, single point]"
19,OCC1CN(C2CCC2)CC12CCN(Cc1ccc(F)cc1)CC2 (stereo not given),active: 44.7 µM
20,Cc1cccc(CC(=O)N2CCCN(c3cc(-c4ccc(Br)cc4)[nH]n3)CC2)c1,"inconclusive: 50.1 µM [inhibitor, partial curve, poor fit]"

row,Structure (SMILES),Potency
1,O=C1CC2(CCN(C(=O)c3ccccn3)CC2)Oc2cc(Cl)ccc21,"inconclusive: 100 µM [inhibitor, single point]"
2,Cc1ccc(NC(=O)CCn2ccn3nc4c(c3c2=O)CCCC4)c(C)c1,"inconclusive: 79.4 µM [inhibitor, single point]"
3,O=C(NCCNC(=O)c1cccc(Cl)c1)c1ccc(-c2cccc(C(F)(F)F)c2)cc1,inactive
4,Cc1ccc(-c2ccccc2CN2CCN(C(=O)C3CC3)CC2)cc1Cl,"inconclusive: 35.5 µM [inhibitor, partial curve, poor fit]"
5,CC(C)(C)COC(=O)N1CC(=O)N(CCCc2ccccc2)CC(O)C1 (stereo not given),inactive
6,Cc1nn(-c2ccc(C(C)(C)C)cc2)c(C)c1[C@@H]1C=C[C@@H](NC(=O)Nc2ccccc2)C1,"inconclusive: 39.8 µM [inhibitor, full curve]"
7,COc1cccc(-c2ccc(C(=O)NCCNC(=O)c3ccccn3)cc2)c1,"inconclusive: 28.2 µM [inhibitor, partial curve, poor fit]"
8,Cn1ncc2c(C(=O)NCc3cccs3)cc(-c3ccc(Cl)nc3)nc21,"inconclusive: 31.6 µM [inhibitor, partial curve]"
9,Cc1cccc(N2CCN(C(=O)c3noc(-c4ccc5c(c4)OCO5)n3)CC2)c1,"inconclusive: 89.1 µM [inhibitor, single point]"
10,COc1cc(SC)ccc1C(=O)N[C@H]1C[C@H]2C(=O)Nc3ccc(-c4ccc5c(c4)OCO5)cc3C(=O)N2C1,"inconclusive: 20 µM [inhibitor, full curve]"
11,O=C(Nc1ccccc1)c1nc2c(o1)CCN(Cc1ccccc1)CC2,"inconclusive: 56.2 µM [inhibitor, partial curve, poor fit]"
12,Cn1cccc1CN1CC2(C1)C(=O)Nc1ccccc12,"inconclusive: 126 µM [inhibitor, single point]"
13,C[S+](=O)([O-])c1ccc(-c2nc(C(=O)NC3CC3)n3ccccc23)cc1,"inconclusive: 50.1 µM [inhibitor, partial curve, poor fit]"
14,CC(C)NC(=O)Cn1nc2c(cc1=O)CCCCC2,inactive
15,CNC(=O)[C@H]1C[C@]2(CCCCN(C)C2=O)N(C(=O)Cc2cccs2)[C@H]1c1ccccc1,inactive
16,Cc1cn2nc(C(=O)NCCc3cccs3)cc2c(N2CCCC2)n1,"inconclusive: 56.2 µM [inhibitor, partial curve, poor fit]"
17,Cc1ccc(S(=O)(=O)NC[C@H]2O[C@@H](CC(=O)N3CCN(c4ccc(F)cc4)CC3)[C@H](O)[C@@H]2O)cc1,"inconclusive: 50.1 µM [inhibitor, partial curve, poor fit]"
18,Cc1cnc(C(=O)NCC23CCC=C2N(C)C(=O)CC3)cn1 (stereo not given),inactive
19,O=C1CC(c2noc(-c3cc(F)ccc3F)n2)CN1c1ccc(F)cc1 (stereo not given),"inconclusive: 56.2 µM [inhibitor, partial curve, poor fit]"
20,Cc1noc(C)c1[S+](=O)([O-])N1CCN(C(=O)c2nc3cccnc3n(CCc3ccccc3)c2=O)CC1,inactive
